Laboratory results published in PubChem BioAssay AID504332 (National Center for Advancing Translational Sciences (NCATS), 2011).
Out of some 350,000 compounds screened, about 31,000 (8.9%) were called active. Inconclusive means that the source gave no clear call. Such entries were picked first, then a sample of the others. The call rests on the fitted dose curve; in most records, active means well fitted inhibition curve with a large enough effect; inconclusive means small, poorly fitted or top-dose-only effect; inactive means no such curve, though single readings can be large or run the other way. A potency beside an inconclusive call is a rough fit, not a confirmed value.

What follows are compounds tested against Histone-lysine N-methyltransferase EHMT2 (Homo sapiens) (UniProt Q96KQ7) (assay: qHTS Assay for Inhibitors of Histone Lysine Methyltransferase G9a). Conditions: G9a H3K9 monomethylation, AlphaScreen, 2 h; activity, negative = inhibition: at 59 µM (top of the series) unless noted.
Outline: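 G9a (20 nM) was preincubated 15 min with compound, then reacted 2 h at room temperature with 500 nM biotin-H3K9 peptide and 20 µM SAM. Monomethyl-H3K9 detected by AlphaScreen using anti-H3K9me1 antibody.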
Further: nearly all actives have a fitted effect of over 75% in size.
On the % scale 0 is the no-effect control and ±100 the full control effect; potency means the concentration at half of the fitted maximal effect; tags describe the fitted curve by direction and shape.

UniProt Q96KQ7, sequence (Q96KQ7 whole entry, looked up): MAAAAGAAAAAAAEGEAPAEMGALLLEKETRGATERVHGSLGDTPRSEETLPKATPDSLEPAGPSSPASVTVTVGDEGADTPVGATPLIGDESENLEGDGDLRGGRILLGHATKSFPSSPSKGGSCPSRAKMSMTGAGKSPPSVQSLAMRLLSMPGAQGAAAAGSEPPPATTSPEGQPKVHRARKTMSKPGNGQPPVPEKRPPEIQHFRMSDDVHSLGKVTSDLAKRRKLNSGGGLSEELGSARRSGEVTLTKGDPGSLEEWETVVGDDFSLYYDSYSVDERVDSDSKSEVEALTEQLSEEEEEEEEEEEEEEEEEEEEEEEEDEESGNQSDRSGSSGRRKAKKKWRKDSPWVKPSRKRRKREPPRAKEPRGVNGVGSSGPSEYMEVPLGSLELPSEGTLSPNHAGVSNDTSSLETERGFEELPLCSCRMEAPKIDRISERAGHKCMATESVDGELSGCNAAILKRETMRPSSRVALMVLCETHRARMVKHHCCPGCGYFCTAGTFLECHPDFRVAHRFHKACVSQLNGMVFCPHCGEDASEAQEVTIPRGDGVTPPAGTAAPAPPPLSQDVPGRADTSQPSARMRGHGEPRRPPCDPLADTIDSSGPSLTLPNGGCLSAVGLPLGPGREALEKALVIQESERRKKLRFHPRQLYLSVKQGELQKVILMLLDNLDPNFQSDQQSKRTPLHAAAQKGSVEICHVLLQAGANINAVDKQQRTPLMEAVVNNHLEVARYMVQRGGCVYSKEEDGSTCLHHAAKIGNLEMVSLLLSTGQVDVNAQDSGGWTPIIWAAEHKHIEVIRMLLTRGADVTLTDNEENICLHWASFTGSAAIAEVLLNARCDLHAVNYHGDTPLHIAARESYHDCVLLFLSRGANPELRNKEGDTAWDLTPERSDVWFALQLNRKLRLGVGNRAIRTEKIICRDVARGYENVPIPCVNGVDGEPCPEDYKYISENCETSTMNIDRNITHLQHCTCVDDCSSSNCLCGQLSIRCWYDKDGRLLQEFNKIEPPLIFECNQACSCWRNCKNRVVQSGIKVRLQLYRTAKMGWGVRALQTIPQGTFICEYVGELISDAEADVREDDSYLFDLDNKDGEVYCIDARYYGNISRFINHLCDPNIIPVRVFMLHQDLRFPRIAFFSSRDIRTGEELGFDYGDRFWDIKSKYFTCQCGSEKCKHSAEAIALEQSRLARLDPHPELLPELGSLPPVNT

Compound	Potency	activity, negative = inhibition
O=C(NCC1CCCO1)c1cccc(S(=O)(=O)N2CCCCC2)c1 (stereo not given)	inactive	–
CCC(=O)N1CCc2cc(Br)cc(S(=O)(=O)N3CCN(C(=O)c4ccco4)CC3)c21	inconclusive: 50.1 µM [inhibitor, partial curve, poor fit]	–
COc1ccc(C2(Nc3cccc(F)c3)C(=O)c3ccccc3C2=O)cc1	inconclusive: 11.2 µM [inhibitor, partial curve]	–
Cc1ccc(Cl)cc1N(CC(=O)NCc1ccccc1)S(C)(=O)=O	inactive	–
COc1ccc(NS(=O)(=O)c2cc(C)ccc2NC(=O)c2cc(C)oc2C)cc1	–	inconclusive: -73.9% [inhibitor]
COCCSc1ccccc1C(=O)Nc1ccc([N+](=O)[O-])cc1OC	active: 22.4 µM	–
COCCn1c(-c2ccc(OC)cc2)cnc1SCC(=O)Nc1ccc(OC)cc1OC	inconclusive: 8.91 µM [inhibitor, full curve, poor fit]	–
Cc1ccc(-c2ccc(CCC(=O)O)n2Cc2ccco2)cc1	active: 50.1 µM	–
COc1ccc(C)cc1NC(=O)C(OC(=O)Cn1cnc2c1c(=O)n(C)c(=O)n2C)c1ccccc1 (stereo not given)	–	inactive: 15.6% [at 0.501 µM]
CCC(C)c1ccccc1OCCCCN1CCCC1 (stereo not given)	inconclusive: 28.2 µM [inhibitor, single point]	–
O=C(NCc1ccncc1)c1ccccc1Nc1ccc(SC(F)F)cc1	active: 44.7 µM	–
CC12C(=O)N(c3ccc(OC(=O)c4ccco4)cc3)C(=O)C1C1c3ccccc3C2c2ccccc21 (stereo not given)	inconclusive: 2 µM [inhibitor, full curve]	–
COc1ccc(NC(=O)c2ccc3nc[nH]c3c2)c(OC)c1	inactive	–
O=[N+]([O-])c1cc(C(F)(F)F)ccc1NCCc1c[nH]c2ccccc12	inconclusive: 31.6 µM [inhibitor, single point]	–
CC(C)CCNC(=O)CSc1nc2ccsc2c(=O)n1NC(=O)c1ccccc1	inconclusive: 44.7 µM [inhibitor, partial curve, poor fit]	–
O=S(=O)(c1ccc(Cl)cc1)c1nc(-c2cccs2)oc1SCc1ccc(F)cc1	inconclusive: 11.2 µM [inhibitor, partial curve, poor fit]	–
Cc1ccc2[nH]cc(CCNC(=O)c3ccc([N+](=O)[O-])cc3)c2c1	inconclusive: 89.1 µM [inhibitor, single point]	–
CC(C)COc1ccc(C(=O)N/C(=C/c2cccc([N+](=O)[O-])c2)C(=O)O)cc1	inconclusive: 79.4 µM [inhibitor, partial curve, poor fit]	–
c1ccc(C(c2ccccc2)N2CCN(Cc3nnnn3C3CCCC3)CC2)cc1	active: 50.1 µM	–
Cc1cc(C)n(-c2nc3c(c(=O)[nH]c(=O)n3C)n2Cc2ccccc2)n1	inconclusive: 35.5 µM [inhibitor, single point]	–
CC(C)C(C)(C#N)NC(=O)CSc1nnc(-c2ccncc2)n1Cc1ccccc1 (stereo not given)	inactive	–
COc1ccc(N2CCN(C(=O)C3CCCN(S(=O)(=O)c4ccc(C)cc4)C3)CC2)cc1 (stereo not given)	inconclusive: 89.1 µM [inhibitor, single point]	–
Cc1ccc(Nc2nc(C(=O)N3CCC(C(=O)N4CCN(C)CC4)CC3)cs2)cc1	active: 50.1 µM	–

Compound	Potency	activity, negative = inhibition
Cc1ccc(N2CCN(C(=O)CN3C(=O)c4ccccc4C3=O)CC2)cc1	inconclusive: 3.55 µM [inhibitor, single point]	–
CN(C)c1nc(NS(=O)(=O)c2ccc(Cl)cc2)nc(N(C)C)n1	inconclusive: 10 µM [inhibitor, partial curve, poor fit]	–
O=C(NC(=S)Nc1ccc(F)cc1)c1ccc2c(c1)OCCO2	–	inconclusive: -84.7% [inhibitor]
COc1ccc(-n2c(C)nc3cc(C(=O)O)ccc32)cc1	–	inactive: -7.85% [at 12.7 µM]
CC(NC(=O)c1ccccc1)C(=O)N/N=C/c1ccco1 (stereo not given)	inconclusive: 100 µM [inhibitor, single point]	–
O=C(COC(=O)CCc1c[nH]c2ccccc12)Nc1ccccc1C(F)(F)F	–	inactive: -2.76% [at 12.7 µM]
COc1ccc(N2CCN(c3ccc(C(N)=O)cc3[N+](=O)[O-])CC2)cc1	inconclusive: 7.08 µM [inhibitor, full curve]	–
CCn1c(CSc2nnc(C)n2-c2ccccc2)nc2cc(S(=O)(=O)N(C)C)ccc21	inactive	–
CN1CCN(C(=O)Nc2cccc3ccccc23)CC1	inconclusive: 35.5 µM [inhibitor, single point]	–
CN(C)CCNS(=O)(=O)c1ccc(N2CCc3ccccc32)c([N+](=O)[O-])c1	active: 50.1 µM	–
COc1ccc(CCN(C)C(=O)c2c(C)noc2C)cc1OC	inconclusive: 5.62 µM [inhibitor, single point]	–
COc1ccc(OC)c(NC(=O)C(CC(=O)O)NCc2ccco2)c1 (stereo not given)	–	inconclusive: -97.6% [inhibitor]
CCC1=NN(C(=O)c2ccccc2Br)C(O)(c2ccc(Br)cc2)C1 (stereo not given)	inconclusive: 39.8 µM [inhibitor, partial curve]	–
O=C(O)CC12CC3CC(C1)CC(n1ncc(NCC4CCCO4)c(Cl)c1=O)(C3)C2 (stereo not given)	active: 56.2 µM	–
Cc1ccc(S(=O)(=O)N2CCOCC2)cc1NC(=O)CSc1n[nH]c(N)n1	inactive	–
COc1cc2cc(CCCOC(=O)c3ccc4c(c3)OCO4)oc(=O)c2cc1OC	–	inactive: -4.68% [at 0.501 µM]
CC1=NN(C(C#N)c2ccc([N+](=O)[O-])cc2)C(C)(C)C1 (stereo not given)	inconclusive: 89.1 µM [inhibitor, single point]	–
CC(C)(C)c1csc(NC(=O)CSc2nc3ccccc3c(=O)[nH]2)n1	inactive	–
Cc1ccc2[nH]cc(C(=O)CCl)c2c1	inconclusive: 56.2 µM [inhibitor, partial curve, poor fit]	–
CS(=O)(=O)N1CCN(C2Cc3ccccc3C2)CC1	inactive	–
Cc1ccc(-n2nc(C)c(/C=N/n3c(C)n[nH]c3=S)c2Cl)cc1	active: 3.16 µM	–
CNC(=S)NNC(=O)c1ccccc1Cl	inconclusive: 79.4 µM [inhibitor, partial curve, poor fit]	–
